# According to the supplement of paper PMC8728848:
# The list shows a part of the results.
# B1: rCnSL-proA (Clitocybe nebularis) (protein)
# chain: AAFFSLVVLLALLPFGIHASALPSTELTPRVNPNLPGPNDVFVGFRGTNNIVGAIYEKDGIKDTPLNNGADAEMGPGSYITDGLFTARIFASGSAGNNPGTTATVCKIYASGVQWRGAPKGYIPVAYFGNGPTAEQRRQTYLRTLGLPGTAIRFGNLNTNPGQGPTAPRQMVVPPGPLRSLLKASCFPAADTRLPQTLHYFEKRVDWNIITAADSQTWGH
# Experiments:
# Test in all cases: glycan array binding signal (z-score within array); higher = stronger binding
# Details in all cases: glycan notation: IUPAC condensed, linker removed
# [1] = molecular target: Neu5Ac(a2-6)Gal(b1-4)GlcNAc(b1-6)[Gal(b1-3)]GalNAc
# Procedure, shortened: (§1)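 Glycan array data were curated from 3228 arrays in the Consortium for Functional Glycomics database and kept only where the protein sequence was available. Glycan names were converted to IUPAC-condensed notation, and columns mapping to the same glycan were averaged. The binding signal is a within-array Z-score, averaged across arrays of the same protein sequence at different concentrations or buffers and across linkers. Negative Z-scores can be read as non-binding.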
# [2] = molecular target: Neu5Ac(a2-6)Gal(b1-4)GlcNAc6S
# Procedure, shortened: as §1
# Neu5Ac(a2-6)GalNAc = molecular target: Neu5Ac(a2-6)GalNAc
# Procedure, shortened: as §1
# [3] = molecular target: Neu5Ac(a2-6)GalNAc(b1-4)GlcNAc
# Procedure, shortened: as §1
# [4] = molecular target: Neu5Ac(a2-6)GalNAc(b1-4)GlcNAc6S
# Procedure, shortened: as §1
# [5] = molecular target: Neu5Ac(a2-6)GlcNAc(b1-4)GlcNAc
# Procedure, shortened: as §1
# [6] = molecular target: Neu5Ac(a2-6)GlcNAc(b1-4)GlcNAc(b1-4)GlcNAc
# Procedure, shortened: as §1
# Neu5Ac(a2-8)Neu5Ac = molecular target: Neu5Ac(a2-8)Neu5Ac
# Procedure, shortened: as §1
# [7] = molecular target: Neu5Ac(a2-8)Neu5Ac(a2-3)Gal(b1-3)GalNAc(b1-4)[Neu5Ac(a2-3)]Gal(b1-4)Glc
# Procedure, shortened: as §1
# [8] = molecular target: Neu5Ac(a2-8)Neu5Ac(a2-3)Gal(b1-3)GalNAc(b1-4)[Neu5Ac(a2-8)Neu5Ac(a2-3)]Gal(b1-4)Glc
# Procedure, shortened: as §1
# [9] = molecular target: Neu5Ac(a2-8)Neu5Ac(a2-3)Gal(b1-4)Glc
# Procedure, shortened: as §1
# [10] = molecular target: Neu5Ac(a2-8)Neu5Ac(a2-3)Gal(b1-4)GlcNAc
# Procedure, shortened: as §1
# [11] = molecular target: Neu5Ac(a2-8)Neu5Ac(a2-3)[Gal(b1-3)GalNAc(b1-4)]Gal(b1-4)Glc
# Procedure, shortened: as §1
# [12] = molecular target: Neu5Ac(a2-8)Neu5Ac(a2-3)[GalNAc(b1-4)]Gal(b1-4)Glc
# Procedure, shortened: as §1
# [13] = molecular target: Neu5Ac(a2-8)Neu5Ac(a2-8)Neu5Ac
# Procedure, shortened: as §1
# [14] = molecular target: Neu5Ac(a2-8)Neu5Ac(a2-8)Neu5Ac(a2-3)Gal(b1-4)Glc
# Procedure, shortened: as §1
# [15] = molecular target: Neu5Ac(a2-8)Neu5Ac(a2-8)Neu5Ac(a2-3)[Gal(b1-3)GalNAc(b1-4)]Gal(b1-4)Glc
# Procedure, shortened: as §1
# [16] = molecular target: Neu5Ac(a2-8)Neu5Ac(a2-8)Neu5Ac(a2-3)[GalNAc(b1-4)]Gal(b1-4)Glc
# Procedure, shortened: as §1
# [17] = molecular target: Neu5Ac(a2-8)Neu5Ac(a2-8)Neu5Ac(a2-8)Neu5Ac(a2-3)[GalNAc(b1-4)]Gal(b1-4)Glc
# Procedure, shortened: as §1
# [18] = molecular target: Neu5Ac(a2-8)Neu5Gc(a2-3)Gal(b1-4)GlcNAc
# Procedure, shortened: as §1
# [19] = molecular target: Neu5Ac(b2-6)Gal(b1-4)GlcNAc
# Procedure, shortened: as §1
# Neu5Ac(b2-6)GalNAc = molecular target: Neu5Ac(b2-6)GalNAc
# Procedure, shortened: as §1
# [20] = molecular target: Neu5Ac9Ac(a2-3)Gal(b1-3)GlcNAc
# Procedure, shortened: as §1
# [21] = molecular target: Neu5Ac9Ac(a2-3)Gal(b1-4)GlcNAc
# Procedure, shortened: as §1
# [22] = molecular target: Neu5Ac9Ac(a2-6)Gal(b1-4)GlcNAc
# Procedure, shortened: as §1
# [23] = molecular target: Neu5Gc(a2-3)Gal(b1-3)GlcNAc
# Procedure, shortened: as §1
# [24] = molecular target: Neu5Gc(a2-3)Gal(b1-3)[Fuc(a1-4)]GlcNAc
# Procedure, shortened: as §1
# Neu5Gc(a2-3)Gal(b1-4)Glc = molecular target: Neu5Gc(a2-3)Gal(b1-4)Glc
# Procedure, shortened: as §1
# [25] = molecular target: Neu5Gc(a2-3)Gal(b1-4)GlcNAc
# Procedure, shortened: as §1
# [26] = molecular target: Neu5Gc(a2-3)Gal(b1-4)GlcNAc(b1-3)Gal(b1-4)GlcNAc(b1-2)Man(a1-3)[Neu5Gc(a2-3)Gal(b1-4)GlcNAc(b1-3)Gal(b1-4)GlcNAc(b1-2)Man(a1-6)]Man(b1-4)GlcNAc(b1-4)GlcNAc
# Procedure, shortened: as §1
# [27] = molecular target: Neu5Gc(a2-3)Gal(b1-4)[Fuc(a1-3)]GlcNAc
# Procedure, shortened: as §1
# [28] = molecular target: Neu5Gc(a2-6)Gal(b1-4)GlcNAc
# Procedure, shortened: as §1
# Neu5Gc(a2-6)GalNAc = molecular target: Neu5Gc(a2-6)GalNAc
# Procedure, shortened: as §1
# [29] = molecular target: Neu5Gc(a2-8)Neu5Ac(a2-3)Gal(b1-4)GlcNAc
# Procedure, shortened: as §1
# [30] = molecular target: Neu5Gc(a2-8)Neu5Gc(a2-3)Gal(b1-4)GlcNAc
# Procedure, shortened: as §1
# [31] = molecular target: Neu5Gc(a2-8)Neu5Gc(a2-3)Gal(b1-4)GlcNAc(b1-3)Gal(b1-4)GlcNAc
# Procedure, shortened: as §1
# [32] = molecular target: Neu5Gc(a2-8)Neu5Gc(a2-6)Gal(b1-4)GlcNAc
# Procedure, shortened: as §1
# [33] = molecular target: Neu5Gc(b2-6)Gal(b1-4)GlcNAc
# Procedure, shortened: as §1
binder,measurement,setting,value
B1,glycan array binding signal (z-score),[1],-0.387
same,glycan array binding signal (z-score),[2],-0.577
same,glycan array binding signal (z-score),Neu5Ac(a2-6)GalNAc,-0.38
same,glycan array binding signal (z-score),[3],-0.633
same,glycan array binding signal (z-score),[4],-0.457
same,glycan array binding signal (z-score),[5],-0.602
same,glycan array binding signal (z-score),[6],-0.896
same,glycan array binding signal (z-score),Neu5Ac(a2-8)Neu5Ac,-0.141
same,glycan array binding signal (z-score),[7],-0.273
same,glycan array binding signal (z-score),[8],0.388
same,glycan array binding signal (z-score),[9],-0.527
same,glycan array binding signal (z-score),[10],-0.848
same,glycan array binding signal (z-score),[11],-0.385
same,glycan array binding signal (z-score),[12],-0.715
same,glycan array binding signal (z-score),[13],-0.552
same,glycan array binding signal (z-score),[14],-0.436
same,glycan array binding signal (z-score),[15],0.673
same,glycan array binding signal (z-score),[16],-0.807
same,glycan array binding signal (z-score),[17],-0.317
same,glycan array binding signal (z-score),[18],-0.765
same,glycan array binding signal (z-score),[19],-0.665
same,glycan array binding signal (z-score),Neu5Ac(b2-6)GalNAc,-0.547
same,glycan array binding signal (z-score),[20],-0.188
same,glycan array binding signal (z-score),[21],2.01
same,glycan array binding signal (z-score),[22],-0.286
same,glycan array binding signal (z-score),[23],-0.115
same,glycan array binding signal (z-score),[24],-0.319
same,glycan array binding signal (z-score),Neu5Gc(a2-3)Gal(b1-4)Glc,-0.61
same,glycan array binding signal (z-score),[25],-0.444
same,glycan array binding signal (z-score),[26],0.288
same,glycan array binding signal (z-score),[27],-0.236
same,glycan array binding signal (z-score),[28],-0.088
same,glycan array binding signal (z-score),Neu5Gc(a2-6)GalNAc,-0.231
same,glycan array binding signal (z-score),[29],-0.591
same,glycan array binding signal (z-score),[30],-0.543
same,glycan array binding signal (z-score),[31],-0.646
same,glycan array binding signal (z-score),[32],-0.631
same,glycan array binding signal (z-score),[33],-0.083
